According to the supplement of paper PMC12217912:
The list shows a part of the results. The full chains were built here from the parent and the listed change. Inactive controls read about 0.05.

B1: TEV protease; numbered along this chain (parent)
chain: MGESLFKGPRDYNPISSSICHLTNESDGHTTSLYGIGFGPFIITNKHLFRRNNGTLVVQSLHGVFKVKDTTTLQQHLVDGRDMIIIRMPKDFPPFPQKLKFREPQREERICLVTTNFQTKSMSSMVSDTSCTFPSGDGIFWKHWIQTKDGQCGSPLVSTRDGFIVGIHSASNFTNTNNYFTSVPKNFMELLTNQEAQQWVSGWRLNADSVLWGGHKVFMVKPEEPFQPVKEATQL

Variants of: B1
Test: raw area under fraction-flipped curve 0-4 h after induction (AUC4h, not background-subtracted), DNA-recorder readout of cleavage of the substrate (dimensionless); higher = more cleavage of the substrate by the protease variant
Details: temperature: 34 °C; time window: 0-4 h after rhamnose induction
Experimental: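 In vivo DNA recorder in E. coli TOP10(DE3) ΔrhaA at 34 °C. Each TEVp single-site mutant (parent TEVp 0) is paired with a single-site variant of the 7-mer TEVs (canonical ENLYFQ|S). The substrate sits between flexible linkers in a Bxb1-sfGFP-TEVs-SsrA fusion, so cleavage stabilises Bxb1 and speeds flipping of a recombination array, read by NGS. The value is the raw area under the fraction-flipped curve over 0-4 h after rhamnose induction (AUC4h), with ≥20 reads per time point. It is not background-subtracted; inactive controls average about 0.047.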
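Further: Bxb1 expression induced with 0.2% (w/v) L-rhamnose at OD600 near 0.5, cultures sampled hourly, flipped fraction per protease–substrate barcode pair counted by paired-end Illumina sequencing.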

Variant	area with substrate EALYFQS	area with substrate EELYFQS	area with substrate EGLYFQS	area with substrate EHLYFQS	area with substrate EQLYFQS	area with substrate ESLYFQS	area with substrate ETLYFQS	area with substrate EVLYFQS	area with substrate EKLYFQS	area with substrate EMLYFQS
R102E	0.0487	0.0626	0.0482	0.0551	0.0605	0.0535	0.059	0.0418		
R109K	0.115			0.107	0.0926	0.051		0.0768	0.103	0.0964
R109Y	0.107		0.0671	0.123						0.108
V113Y	0.119	0.124	0.0893	0.0841		0.086		0.109	0.0813	0.0939
F117P	0.0981	0.168		0.111	0.143	0.0931	0.11	0.0598	0.115	0.109
Q118C	0.115					0.0868	0.127			0.117
S124C	0.101		0.0937	0.117		0.0904		0.102	0.0888	0.103
S124Y	0.138		0.0912			0.112		0.0962		
D128T	0.129				0.162	0.127			0.105	
C131P	0.117					0.154		0.11		
D137A	0.0958		0.081						0.088	0.0934
D137S	0.173				0.108	0.108		0.103	0.102	
G138P	0.101				0.0605	0.0838				
W141N	0.0598	0.0093		0.0582		0.0382			0.0607	
T147V	0.124	0.111			0.108		0.11	0.0872	0.0838	
D149I	0.0706		0.0901		0.0948	0.0763	0.0868			
G153F	0.0316	0.0523	0.052			0.0491		0.052	0.0494	
S154V	0.124		0.0687		0.111					
L156Y	0.0633	0.0536	0.0522		0.0634	0.0701	0.0611		0.0624	
T159K	0.123		0.0793			0.12			0.104	
T159V	0.109	0.115			0.13	0.104		0.0995		
D161G	0.0919	0.103	0.0778		0.0974	0.0895		0.0845		0.104

Same assay, conditions: temperature: 34 °C; time window: 0-4 h after rhamnose induction

Variant	area with substrate ERLYFQS	area with substrate ELLYFQS	area with substrate EWLYFQS	area with substrate EDLYFQS	area with substrate EILYFQS	area with substrate EPLYFQS	area with substrate EFLYFQS	area with substrate EYLYFQS
R109K	0.116							
R109Y	0.111	0.119	0.0951					
V113Y	0.0774		0.0399	0.134	0.0878			
F117P	0.117				0.0998	0.115		
Q118C		0.11	0.0942					
S124C		0.0763					0.1	0.0848
S124Y				0.124		0.158		
D128T			0.116	0.148				0.127
D137A				0.119				0.0995
D137S		0.0922		0.231	0.0943			
G138P	0.0878							
W141N						0.0573		
T147V	0.0872					0.0935	0.116	
D149I								0.0592
G153F					0.0465	0.0633		
S154V	0.0682				0.0853			
L156Y	0.0554	0.055			0.0553			
T159K			0.0991					
D161G		0.069		0.0927	0.062		0.105	0.0747
